Test results from article PMC12136788.
The other results are listed elsewhere or left out.

B1: 44956482_44957145_737_3pUTR_ENSG00000175274_ENST00000395648|human|control|control (ssRNA)
RNA: GGGAGUUCUACAGUCCGACGAUCGAUGACGACAAAAAGGAGGCGGCUGACCAGGAGCAGCAGGAUCCCCAGGGACAUGAGGCCCGUCUCAGCUAGCGUGGCAGUGACCACCAAGAACUGGACCCCGAAAUAGCAAGCUUCGGUCAACAGAGGAUUGAGCAUCA
B2: chr5:21408736:21408737:-_ENSMUSG00000042453_ENSMUST00000161356|mus_hu|mus_mus_mus_hu_False|98_98 (ssRNA)
RNA: GGGAGUUCUACAGUCCGACGAUCGUUGACAGAGUUGUAAAUGGUGGCUUCAUGGAACUGGAAAGGGGAGCAGCCAAUGCUGUUAGAAGAGGAAGGAAGGCACUGGGUCUGUACGAGCUGCCAGGAAUCCGAUCUUGCAUCCUUCAACAGAGGAUUGAGCAUCA
B3: chr9:91931296:91931297:+_ENSG00000123975_ENST00000314355|hu_hu|hu_hu_hu_mus_True|48_48 (ssRNA)
RNA: GGGAGUUCUACAGUCCGACGAUCAGAUUAGAUGAUCCCAGCUGCACUUCAUUUUUGUUGUUCUUUUGGAAGAGGUCGUCUAAAGAGAAGAAUAUGUGGUUCUGGCUCAUGAAUCAUGUAAUGAACCCAUCCUAGACUCUGUUGCAACAGAGGAUUGAGCAUCA
B4: chr5:5249095:5249096:-_ENSMUSG00000028926_ENSMUST00000030763|mus_hu|FALSE|FALSE (ssRNA)
RNA: GGGAGUUCUACAGUCCGACGAUCCUUAAAGUUAAUGCAAGCAUUGUUCUCAGAAUGCACCCUCUUUACUUGAUUAGCUGGUUUCUCAAAUGGGUCAAAAGUGCUCUGUGUCCUCUGAACUCUGACUUUUUUAUCCUCAGGAAUCAACAGAGGAUUGAGCAUCA
B5: chr2:60072956:60072957:+_ENSMUSG00000026977_ENSMUST00000102748|mus_mus|FALSE|FALSE (ssRNA)
RNA: GGGAGUUCUACAGUCCGACGAUCUGCACUUUUAGCUUUAUCAUUUUUCCCAUCAGUUGAAUUCCAACCAGAAGGAAUAAUAUCUACAGUAAUCAUGACAUUGUCAGCCAGAUUACUGCCGAGUGCUGGUGGGACUGCAAACCGCAACAGAGGAUUGAGCAUCA
B6: chr9:14812383:14812384:-_ENSMUSG00000031934_ENSMUST00000164273|mus_mus|mus_mus_mus_hu_True|1_78 (ssRNA)
RNA: GGGAGUUCUACAGUCCGACGAUCAUAGCCCAGGUAGAUACACGCUAACAGUAUAAUCACAAAUGUCAGCAGGCGGCAGCUAAUGUACUUGAUGAUUAAAUUAUUAGAAUUUUUCUUUGUCUUCAAGUACUGCUCCACGAUUGGCAACAGAGGAUUGAGCAUCA
B7: chr5:128440902:128440903:+_ENSG00000066583_ENST00000173527|hu_mus|hu_hu_hu_mus_True|48_108 (ssRNA)
RNA: GGGAGUUCUACAGUCCGACGAUCUUGAACCGUGCUCCCAAGUCCUUUGGGGUAUUGUUCCGUUAUGAUAACUGGAAUCCCUAAGAUCCGGGCCCCUUGCAACAGUCUCUGUCCCACACUAAUGAUGUCCCCAAAGUAUUUGAUCAACAGAGGAUUGAGCAUCA
B8: 45009487_45009607_501_3pUTR_ENSMUSG00000036097_ENSMUST00000096053|mouse|control|control (ssRNA)
RNA: GGGAGUUCUACAGUCCGACGAUCGUGGUGCUCCUUCCCACCUUUCAUGAAAGCCUCUAAAAUAGGACUUUCUUCUGAUGACAUCCUCUUAGGUUUAAGUUUUUUUGGUGAAGAUAAUUUCCUUUCAAAUUGCUCUGUCCCAGUCAACAGAGGAUUGAGCAUCA
B9: 222886003_222886123_169_5pUTR_ENSG00000162819_ENST00000340934|human|control|control (ssRNA)
RNA: GGGAGUUCUACAGUCCGACGAUCAUGAUAGCUACCGAGGCGGUAGUGCGCGCAGCUCAGGGGCGGGUAUUGCCGCGGCGUUGCAGUCCCCUCAAAACGCUUCGUUCAUCAUCCCUUUCUAACUUCUCCCUCGGCCUUCCUUUUCAACAGAGGAUUGAGCAUCA
B10: 116287005_116291584_275_CDS_ENSMUSG00000028693_ENSMUST00000030457|mouse|control|control (ssRNA)
RNA: GGGAGUUCUACAGUCCGACGAUCCUUCUUACCUAAAAGACUAGCUGCUUCCUGGAAUGCAUUAACAGCUGCUGGAAUGUCACCCAUCACCAGAUGUUUCUGUCCUAAUCCCAGUAGUUUCUUAGCUUCACUAUCCACAUCCAGCAACAGAGGAUUGAGCAUCA
B11: 66463108_66463409_5036_CDS_ENSMUSG00000015222_ENSMUST00000114013|mouse|control|control (ssRNA)
RNA: GGGAGUUCUACAGUCCGACGAUCAGUUGGUCUAGUGUAUUUGAUAGCAGGUUUUAAAAUGAGUUUCCUGGAAGGAGAGUGGGCCUGAACUUCUGAUUUUUUAGCAAGUUCAGCCUUCUUAUAAACUGCUUUUUUCCUUCUCACCAACAGAGGAUUGAGCAUCA
B12: chr2:74399864:74399865:-_ENSG00000114978_ENST00000396049|hu_hu|FALSE|FALSE (ssRNA)
RNA: GGGAGUUCUACAGUCCGACGAUCAGAGUUCAUACUGAUGAGAUCCUUCAGGGAUAUUCUUCUUUGGUUUGAAUGUUUUAGAAGAGCGGCUGCUGAAGAGGAAGCUCAUCUUCGGUCCUCAGAGGGGAGGCGAGGGGCCCCUGGCAACAGAGGAUUGAGCAUCA
B13: chr19:10649910:10649911:-_ENSMUSG00000024666_ENSMUST00000025568|mus_hu|FALSE|FALSE (ssRNA)
RNA: GGGAGUUCUACAGUCCGACGAUCGCAUCUUCCUUCUGUUUUCUCGGGCCCCCAAGGGCACAUCCCACAGUUCCCAGAAAACCGCUCCUGGCUGUCUCCCUACCACUGAGGGAGAGGCUUCUAGUUCCUUUGAAUGAGAGCUGUCAACAGAGGAUUGAGCAUCA
B14: chr3:148802587:148802588:-_ENSG00000071794_ENST00000310053|hu_mus|hu_hu_hu_mus_False|8_108 (ssRNA)
RNA: GGGAGUUCUACAGUCCGACGAUCUCCAACCACAUGACCUCUCAUAGUUCCAAAUAAAACCAAAUCUUGCUCUUCAUCACUCGUUAGGAAGUCAUCUGGAGGAAUAAUGUCUUGGAAUUCAAAAUGUGGAAAGAAAGUUGAGUACAACAGAGGAUUGAGCAUCA
B15: 7556756_7557214_644_CDS_ENSG00000129244_ENST00000250111|human|control|control (ssRNA)
RNA: GGGAGUUCUACAGUCCGACGAUCGUCACUGACAUUGACAAUGACAUCAAGGUUCUCAGUCUUGGGGCGAAUCAUCAAGCCCGGUGUGGCCAGUCGGUCCUGGUACUUGGGGGUAUGGUCGGAGACAGUCUGCAGCAUCACCCACAACAGAGGAUUGAGCAUCA
B16: 123327785_123327905_1134_CDS_ENSMUSG00000035202_ENSMUST00000038863|mouse|control|control (ssRNA)
RNA: GGGAGUUCUACAGUCCGACGAUCAGGGACUAGUGCCUUCUGCAAGGCUUUCUUCACAGAGCUGCAGCCAUGUAGAAGCCCGUGGCUAGGAGAGAUGGCCACGUGGGAGAUGCCAUAGAUGGCCUCAGGGGUGGCUGUGUAUGCCAACAGAGGAUUGAGCAUCA
B17: chrX:71549400:71549401:+_ENSMUSG00000019087_ENSMUST00000019231|mus_hu|mus_mus_mus_hu_False|18_38 (ssRNA)
RNA: GGGAGUUCUACAGUCCGACGAUCGCAGUAGGAAGAGGGAAGCUCUUCAGUCCAGUGCGCUGCAGGGUGGGAAAGCAACAACACGGACACCGUCCCACCUCAAUUCCCCCCACUGGCAUGUCACACAACAAUCUGGGUCAAAGACAACAGAGGAUUGAGCAUCA
B18: chr1:220315150:220315151:+_ENSG00000067704_ENST00000302637|hu_hu|FALSE|FALSE (ssRNA)
RNA: GGGAGUUCUACAGUCCGACGAUCAGCCAGGUGAGGAAGAAUGGGAGCAAAAGAACGAACUAUUACAUCCAAAAUUUCAACUAAUGCAGUCUGACAAGAGCGUCGUUUGGGGUCAUUUUCCUUUUCACAAUAGAGCCUAUCUUUCAACAGAGGAUUGAGCAUCA
B19: chr18:35731935:35731936:+_ENSMUSG00000037236_ENSMUST00000166793|perfect_dup|FALSE|FALSE (ssRNA)
RNA: GGGAGUUCUACAGUCCGACGAUCAGGGAGUGGACCUCUACUUCCAAUGUUAAAUAUAGACUGCAAAUUAUGGGAAGAAGUACUAGCAGAAGACAGUGCACUAUGAGCUCCUUGUUGAUUCAAUGAAGAACUCAUUCCAAGAUUCAACAGAGGAUUGAGCAUCA
B20: chr14:89338683:89338684:+_ENSG00000165533_ENST00000346301|hu_hu|hu_hu_hu_mus_False|68_98 (ssRNA)
RNA: GGGAGUUCUACAGUCCGACGAUCGUGGUUGUUGUGGACCAGAGCCAGCCUGAAGCAUUGGUGGGCCAAAUUUGUAUCUCCGAUUCCCACAGCUAUGUGCCCCAGGUUGUACCAGACAUCAGCUGCCUCUUCUUCAUUUUCAGCCAACAGAGGAUUGAGCAUCA
B21: chr1:36558744:36558745:+_ENSG00000116863_ENST00000373178|hu_mus|FALSE|FALSE (ssRNA)
RNA: GGGAGUUCUACAGUCCGACGAUCUAUGGUGUCUGUGUCCCCACCAAGUGAGAUGGAGUAGAUGAGAGUCCUCUGGAGACUGUUGAAGGUGGAGGGGAUCUCAGGGUGAGGCUCCAUGCAGCGCAGGAAGCAGUAGAUGGCGGUCAACAGAGGAUUGAGCAUCA
B22: chr9:111175386:111175387:+_ENSMUSG00000046785_ENSMUST00000060711|mus_hu|FALSE|FALSE (ssRNA)
RNA: GGGAGUUCUACAGUCCGACGAUCUUCCGUUAGUAAAGUCUGAAAUUCAGGUCGCCUAACGCCUCUGGUCUUAAUCAAAACUAUCCAUUCGGAUAUGGUAUUUAUGAUCUGAUUAACAUCUACAUCAUAGGAGCUCAACAGUUCCAACAGAGGAUUGAGCAUCA

Each binder was assayed against T1, UNK ZnF1-3 (human, UniProt Q9C0B0 31-174) (assay: nsRBNS (natural sequence RNA bind-n-seq); RBNS binding buffer (assumed for nsRBNS): 25 mM Tris pH 7.5, 150 mM KCl, 3 mM MgCl2, 0.01% Triton X-100, 500 ug/ml BSA, 20 U/ml SUPERase-In, 4 C; UNK is unkempt and MSI1 is Musashi-1; names of the RNAs are library labels; protein concentration not given here; high values mean tight binding).
T1 sequence: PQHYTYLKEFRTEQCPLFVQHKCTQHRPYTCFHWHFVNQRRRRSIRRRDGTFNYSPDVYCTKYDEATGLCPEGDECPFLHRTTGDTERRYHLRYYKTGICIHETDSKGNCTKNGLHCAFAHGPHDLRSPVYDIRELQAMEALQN
B1 showed a binding signal of 1.74 enrichment R.
For B2, the binding signal was 1.82 enrichment R.
With B3 the binding signal was 1.07 enrichment R.
Work on B4 yielded a binding signal of 0.832 enrichment R.
B5 was tested, and the binding signal was 0.392 enrichment R.
Work on B6 yielded a binding signal of 1.44 enrichment R.
B7 showed a binding signal of 0.679 enrichment R.
Binder B8 has a binding signal of 0.587 enrichment R.
For B9, the binding signal was 0.775 enrichment R.
With B10 the binding signal was 0.631 enrichment R.
B11 gave a binding signal of 0.974 enrichment R.
For B12, the binding signal was 0.926 enrichment R.
In the case of B13, the binding signal is reported as 0.941 enrichment R.
B14 showed a binding signal of 1.33 enrichment R.
For B15, the binding signal was 1.21 enrichment R.
B16 gave a binding signal of 0.877 enrichment R.
Work on B17 yielded a binding signal of 1.15 enrichment R.
B18 was tested, and the binding signal was 2.51 enrichment R.
B19 showed a binding signal of 1.13 enrichment R.
Binder B20 has a binding signal of 0.787 enrichment R.
B21 showed a binding signal of 1.02 enrichment R.
B22 showed a binding signal of 0.714 enrichment R.
